Measurements reported in article PMC12136788.
The list shows a part of the results.

T1: UNK ZnF1-3 (human, UniProt Q9C0B0 31-174)
T1 sequence: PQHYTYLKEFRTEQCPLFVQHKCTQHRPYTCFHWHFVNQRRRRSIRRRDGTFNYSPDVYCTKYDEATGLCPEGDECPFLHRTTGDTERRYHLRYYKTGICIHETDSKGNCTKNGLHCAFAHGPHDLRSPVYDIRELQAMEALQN

B1: chr5:134191040:134191041:+_ENSG00000181904_ENST00000394976|hu_hu|FALSE|FALSE (ssRNA)
RNA: GGGAGUUCUACAGUCCGACGAUCAAAAGCAGCAGUGCCACAGCCAUAACCAAGAUCGGCAAGACGGGAUAGAGCUUUAAUGCUACCUGGAGGUCUGCCUGGGCUGACUUUGUAUCCCGCAGCUUUAGUUGUCCCCAAAGGUCUCAACAGAGGAUUGAGCAUCA
B2: chr17:64801638:64801639:+_ENSG00000154229_ENST00000413366|hu_mus|hu_hu_hu_mus_False|38_38 (ssRNA)
RNA: GGGAGUUCUACAGUCCGACGAUCUAUAUAUAUAUAUACAUAUGUACACAUAUAUAGUAAAACCCUAGUUAAACGUGUAAAGUAGCCAUUCAUUUUUGAAAUUUUAUCUACAUUAAAAAAUUAAUAUAUCUGAUAGAGUGCCAGCAACAGAGGAUUGAGCAUCA
B3: chr2:187371472:187371473:+_ENSG00000065548_ENST00000337859|hu_mus|motif|central (ssRNA)
RNA: GGGAGUUCUACAGUCCGACGAUCACUGGCCACAGUGAUACCUGUCUCUUCUACAUCUCUUGGGACGUACAGGCUUAUAUCGGUGUCAUUUACACCCAUAGAAUCAUCAACCUCAUCACCACCUGUUCCCUGAAUGUAACGGGUCAACAGAGGAUUGAGCAUCA
B4: chr16:37881740:37881741:+_ENSMUSG00000034158_ENSMUST00000078717|mus_mus|motif|central (ssRNA)
RNA: GGGAGUUCUACAGUCCGACGAUCAGACCGAUCAACUGAAUUUUGAACUGCCAUUCACAAUAAAUUACACUCAAAGAAUCGGAACAGGGAACUGGACUCAUUCCUGCCGAAUGUGUAGACAGAAUGCAAAACCUUUCUUUCACACAACAGAGGAUUGAGCAUCA
B5: chr4:144460044:144460045:+_ENSG00000153147_ENST00000283131|hu_mus|hu_hu_hu_mus_False|28_48 (ssRNA)
RNA: GGGAGUUCUACAGUCCGACGAUCACGGUCCAUAGCCUGAAGAUCAACUUGCGGAUUCCAAUCUGAGUCAUAUAAAAUGACUACAUCAGCAGUCGCAAGAUUGAUGCCAAGACCACCAGCACGUGUGCUUAGCAUAAAUACAAACAACAGAGGAUUGAGCAUCA
B6: chr2:55462594:55462595:+_ENSG00000143947_ENST00000402285|hu_hu|FALSE|FALSE (ssRNA)
RNA: GGGAGUUCUACAGUCCGACGAUCUGCCAUAAACACCCCAGCACCACAUUCAUCAGAAGGGCACUCUCGACGAAGGCGACUAAUUUUGCCAUUCUCAUCCACCUUAUAAUAUUUCAGGACAGCCAGCUUAACCUUCUUUCUCUUCAACAGAGGAUUGAGCAUCA
B7: chr7:65705844:65705845:+_ENSG00000169902_ENST00000304842|hu_mus|hu_hu_hu_mus_False|58_58 (ssRNA)
RNA: GGGAGUUCUACAGUCCGACGAUCAAACGGAUCUUUGUUACAUAAAUAAGGUGCCGGCUCCCCAUGUUUAACAAUGAUUUCUAGUAAGAAGGCUUGCAUGGCAGAAUCUAGCACUUCAUCUGUGACACCCGCCUCAUCCAAGCGCAACAGAGGAUUGAGCAUCA
B8: chr16:13788901:13788902:+_ENSMUSG00000022682_ENSMUST00000023363|mus_mus|FALSE|FALSE (ssRNA)
RNA: GGGAGUUCUACAGUCCGACGAUCGAUGUUUAUAAGUUGCUCAAAGUCUUUUGUCAAGUACAUGACAGAGGAACGAAAUUCUAGUAGCCAGUUAAUGAUCUGGUCAUCCUUUAUAUCAGGAUCAGACAGCUGGUUCUUCAACAACAACAGAGGAUUGAGCAUCA
B9: chr5:32794366:32794367:+_ENSMUSG00000014956_ENSMUST00000015100|mus_mus|motif|central (ssRNA)
RNA: GGGAGUUCUACAGUCCGACGAUCAGAAGAGAGCCAGCUAUCCAAGGCUUGUCAAAAAGGAUUCUCAUGUUCUGUGAAUCGGAAAACAAACAAACAACAAAAACCCCAAAAAACAAAACCAAUGCAGGUGAGGGUAAUACCAGACAACAGAGGAUUGAGCAUCA
B10: chr1:23645023:23645024:-_ENSG00000125944_ENST00000302271|hu_hu|FALSE|FALSE (ssRNA)
RNA: GGGAGUUCUACAGUCCGACGAUCCUUAGCCAUGACUUCUGGAUCUGGUUCUUCCACAGGGUCAGCCCAUUCAACUGUAACUACAUUUCCCCACACUUUUACUUUUCCACUCAUCAGCCGGCGUCUGGCUUGUGCUGCUGACUUCAACAGAGGAUUGAGCAUCA
B11: chr17:7478442:7478443:+_ENSG00000161960_ENST00000293831|hu_hu|FALSE|FALSE (ssRNA)
RNA: GGGAGUUCUACAGUCCGACGAUCCGAUAUGGCAAAUGUGGCCGUUUUCCCAGUCCCAGAUUGGGCUUGAGCAAUCACAUCAUAACCCUUGAUACAAGGUAGAAUGGCUCGCUGCUGGAUGGCAGAGGGCUUCUCAAAACCAUACAACAGAGGAUUGAGCAUCA
B12: chr2:198365819:198365820:+_ENSG00000115541_ENST00000409468|hu_hu|motif|central (ssRNA)
RNA: GGGAGUUCUACAGUCCGACGAUCAGUUUCAGCAGCACUCCUUUCAACCAAUACUCGGUCAAAGAGUGGAAGAAACUUUCGGAACGCUUGUCCUGCCAUUACUCCCUCCGCCUCAGACUCGUACUCUGCUCUAGUGUAGCGCCGCAACAGAGGAUUGAGCAUCA
B13: 125316601_125316721_4730_CDS_ENSMUSG00000030655_ENSMUST00000032891|mouse|control|control (ssRNA)
RNA: GGGAGUUCUACAGUCCGACGAUCAAGCUCAGGGCCCCAUUUUUCAUCCACUUGGCCUUGAGUGGACAGUUUUUUAAAAUGCUGGACUAAGUCCUGGGCAGUGGUUGUCUUUCCCAGCUGAACCUCACUGCACUGUGCCAGCAGCAACAGAGGAUUGAGCAUCA
B14: chr11:18503389:18503390:-_ENSG00000074319_ENST00000251968|hu_hu|hu_hu_hu_mus_True|38_108 (ssRNA)
RNA: GGGAGUUCUACAGUCCGACGAUCAUUUUCCAUUUUUUCCAGAGCAGAACUUAGUUCUUCAUCCUUCUUUUUCAAAAGUUCUAUGUUUUUAUCAACUUCGGCUACUUCUUGAUCUAAGCGGGUGACCAUCUCUUCCAGUUUCUGCAACAGAGGAUUGAGCAUCA
B15: chrX:20248820:20248821:+_ENSMUSG00000001924_ENSMUST00000001989|mus_mus|mus_mus_mus_hu_True|68_108 (ssRNA)
RNA: GGGAGUUCUACAGUCCGACGAUCGGCAAAGUCAGUCACCACAAAGUCAGGUUCUGCCAGUGAGGCCGGCAAGGAUUUAAAGCUAAUCUUCUUAGGUACUUUGACCUGACUGACGAUGCCUCCACGGAUGUAGUCGGAGAAGUUCAACAGAGGAUUGAGCAUCA
B16: chr5:24309477:24309478:-_ENSMUSG00000028945_ENSMUST00000030787|mus_hu|FALSE|FALSE (ssRNA)
RNA: GGGAGUUCUACAGUCCGACGAUCCGGGCAGUUUGCUUCUUCAGGUAGAAUAUAUUCCCAGUGUCCUCAGGCUUUGCAGCAGAAUCACAUCACCGAGCAUGAAGACUUGCCUUGUGAAGCUGCCCCGUCCAUUUUUUCUGCCUCCAACAGAGGAUUGAGCAUCA
B17: 130313498_130313618_915_CDS_ENSMUSG00000052707_ENSMUST00000094053|mouse|control|control (ssRNA)
RNA: GGGAGUUCUACAGUCCGACGAUCCCCACUCCCUACAGGCCCUUUUAGGGCAAGUCCAUUGUUUUCUAAUACUGGCCAGGCACCAUGGUUGCUAGCUGAAUUCAAAGUGCUUGGAUUUAACCCUCCAUUUGAUGAAGAACUUACCAACAGAGGAUUGAGCAUCA
B18: 63468907_63470776_12739_CDS_ENSMUSG00000030451_ENSMUST00000076226|mouse|control|control (ssRNA)
RNA: GGGAGUUCUACAGUCCGACGAUCAAACUGAGAUCCACAUUCCACUUUAACUACUCCAAGGCCAGUGAGAGAAUCAAUCUUCAUGGGCACUUUGCAACCAUCACUGCCUCCUCUGCCAAGCUUGCCAUAGUCUCCAUCUCCCCACAACAGAGGAUUGAGCAUCA
B19: chr3:148802587:148802588:-_ENSG00000071794_ENST00000310053|hu_mus|hu_hu_hu_mus_False|1_78 (ssRNA)
RNA: GGGAGUUCUACAGUCCGACGAUCUCCAACAACUUGUCCUCUCAUAGUUCCAAAUAAAACGGAAUCUUGCUCUUCAUCACUCGUUAGGAAGUCAUCUGGAGGAAUAAUGUCUUGGAAUUCAAAAUGUGGCAAGAAAGUUGGAUACAACAGAGGAUUGAGCAUCA
B20: 101383963_101384083_1988_CDS_ENSG00000066422_ENST00000312938|human|control|control (ssRNA)
RNA: GGGAGUUCUACAGUCCGACGAUCUGCAACUAGAUUUUCCUGAUCUUUUAAAGGUUGGUCAACUUUCUGCCUAUGUUUUGGAAUGUCUUCGGCACAAAUAUCCUCAGCUGAUAUAUCAUUUCCCAUACCACUAUCCUCUGGCGACAACAGAGGAUUGAGCAUCA
B21: 213161987_213162107_1344_3pUTR_ENSG00000143494_ENST00000366968|human|control|control (ssRNA)
RNA: GGGAGUUCUACAGUCCGACGAUCUGCCUUUUAGUGAAUUUUUUAAAGCUAAUGGUUACCACCCACUCAGAUUCUAUUUCCAGGUGAAUCCUUAAAAAUAAAAUUCACAAGUUCUUAAUAAAUAGUUGCAGUUCCUCCUGAAGACAACAGAGGAUUGAGCAUCA
B22: 152657560_152657680_3021_3pUTR_ENSG00000162980_ENST00000295087|human|control|control (ssRNA)
RNA: GGGAGUUCUACAGUCCGACGAUCUAUAAAUUUAUUUUUUUCCCAACUAUAAUUUUGGUUUUAUGUACAAGUACACAAGUACCACCUUAUUUUUAAUGUUUACCUUGAAGGGUAGAAAACAAAAUCAUGUUUUAUAAAUGUGGUCAACAGAGGAUUGAGCAUCA

target: T1, UNK ZnF1-3; experiment: nsRBNS (natural sequence RNA bind-n-seq); RBNS binding buffer (assumed for nsRBNS): 25 mM Tris pH 7.5, 150 mM KCl, 3 mM MgCl2, 0.01% Triton X-100, 500 ug/ml BSA, 20 U/ml SUPERase-In, 4 C; UNK is unkempt and MSI1 is Musashi-1; names of the RNAs are library labels; protein concentration not given here; high values mean tight binding

Binder | binding signal [enrichment R]
B1 | 1.39
B2 | 1.94
B3 | 0.654
B4 | 1.15
B5 | 0.584
B6 | 1.43
B7 | 0.641
B8 | 0.809
B9 | 1.33
B10 | 0.641
B11 | 0.962
B12 | 0.868
B13 | 0.614
B14 | 0.385
B15 | 0.743
B16 | 0.882
B17 | 0.894
B18 | 1.18
B19 | 1.12
B20 | 0.804
B21 | 1.09
B22 | 0.977
